# Screen size: about 52,000 compounds; about 1,700 (3.3%) were called active. No stated cut-off is given here; in the data, active means survival mostly below about 52% (no sharp cut-off); inactive means mostly above about 56%. The list shows a part of the results.
# System: Wild type
# Test: growth inhibition of S. aureus wild type versus tarO mutant, primary screen, teichoic acid synthesis inhibitors, RN4220, OD600 (AID 463173)
# Conditions: S. aureus RN4220 wild type/DeltatarO growth, OD600, 18 h, active compounds read low, screened at 18.75 µg/mL (by protocol)
row,SMILES,survival
1,COc1ccc(-c2cn3c(n2)sc2cc(C(=O)Nc4ccc(C)cc4C)ccc23)cc1,inactive: 87%
2,C=CCNC(=O)Nc1c[nH]c2ccccc2c1=O,inactive: 111%
3,COc1ccc(-n2c3c(cc(-c4nc(-c5ccc(Cl)cc5)cs4)c2=O)C(=O)CC(C)(C)C3)cc1Cl,inactive: 72%
4,CCOc1ccc(NC(=O)CCSc2nc(-c3ccc4c(c3)OCO4)cc(C(F)(F)F)n2)cc1,inactive: 72%
5,O=S(=O)(NCCN1CCOCC1)c1cccc(C(F)(F)F)c1,inactive: 105%
6,CCN1C(=O)c2ccccc2Sc2ccc(NC(=O)c3ccc(C#N)cc3)cc21,inactive: 73%
7,COC(=O)Nc1ccc2c(c1)N(C(=O)CCN1CCOCC1)c1ccccc1S2,inactive: 106%
8,Cc1ccccc1NCc1nc2ccccc2n1CCOc1ccccc1,active: -20%
9,CN(C(=O)Cn1nnc(-c2ccc(S(C)(=O)=O)cc2)n1)c1ccccc1,inactive: 74%
10,Cc1c(C(=O)N(C)C)sc2c1c(=O)n(-c1ccccc1C(F)(F)F)c(=O)n2Cc1cccc(F)c1,inactive: 70%
11,COc1ccc(C(=O)Nc2nc3c(s2)Cc2cc(OC)ccc2-3)cc1,inactive: 72%
12,CC(C)C(c1nnnn1C1CCCC1)N1CCOCC1 (stereo not given),inactive: 98%
13,COc1ccc(NC(=O)CSc2oc(-c3ccco3)nc2S(=O)(=O)c2ccccc2)c(OC)c1,inactive: 135%
14,O=C(Nc1ccc(Cl)cc1)c1cc(S(=O)(=O)NC2CCCCCC2)ccc1F,inactive: 97%
15,CCc1ccc(S(=O)(=O)c2nnn3c2nc(NCc2ccccc2)c2cc(Cl)ccc23)cc1,inactive: 103%
16,CCN(CC)S(=O)(=O)c1cccc(C(=O)NCc2ccccc2)c1,inactive: 101%
17,CCOc1ccc(C(=O)Nc2ccc3c(c2)OCCO3)cc1Br,inactive: 64%
18,CCCNC(=O)C(Cc1ccccc1)NS(=O)(=O)c1ccc2c(c1)c(=O)n(C)c(=O)n2C (stereo not given),inactive: 79%
19,COc1ccccc1-c1nc2cc(NC(=O)c3ccccc3Cl)ccc2o1,inactive: 68%
20,O=C(CN1CCN(Cc2ccccc2Cl)C1=O)NCCc1ccc(Cl)cc1,inactive: 70%
21,COc1cc(NS(=O)(=O)c2ccc(-c3cc(C)no3)cc2)cc(OC)c1,inactive: 124%
22,Cc1ccc(-c2csc3ncnc(Nc4ccc(C(=O)O)cc4)c23)cc1,inactive: 129%
23,COc1ccc2c(c1)CCc1c(C(=O)Nc3ccc(OC)cc3OC)noc1-2,inactive: 143%

row,SMILES,survival
1,COc1ccccc1NC(=O)c1sc2nc3n(c(=O)c2c1C)N=C(c1cccc(Br)c1)CS3,inactive: 69%
2,CCc1ccc(-n2c(SCC(=O)NCC(C)C)nnc2-c2ccncc2)cc1,inactive: 100%
3,Cc1nc(S(=O)(=O)N2CCN(c3ccccc3F)CC2)cn1C,inactive: 121%
4,Cn1c(C(=O)OCC(=O)NCc2cccs2)cc2sccc21,inactive: 111%
5,COc1ccc(Cn2c(C(=O)O)c(CNC3CCCCC3)c3ccc(C)cc32)cc1,inactive: 56%
6,COC(=O)c1ccc2c(c1)N(Cc1ccccc1)C(=O)c1ccccc1S2(=O)=O,inactive: 93%
7,COc1ccc(Cl)cc1NC(=O)CN1Cc2ccccc2C1=O,inactive: 73%
8,O=C(O)c1ccc(NC(=O)c2ccc(Br)c(S(=O)(=O)N3CCCC3)c2)cc1,inactive: 70%
9,CCOc1ccc(NC(=O)Cc2c[nH]c3ccccc23)cc1,inactive: 71%
10,Nc1c(-c2nc(-c3ccc4c(c3)OCO4)cs2)c2ccccn2c1C(=O)c1ccc(Cl)cc1,inactive: 121%
11,CCCC12CN3CC(C)(CN(C1)C3c1ccc(OCc3ccccc3)cc1)C2=O (stereo not given),inactive: 94%
12,Cc1cccc(CNC(=O)CN2C(=O)CCn3nc(-c4cn(C)c5ccccc45)cc32)c1,inactive: 123%
13,Cc1ccc(SCc2nc(-c3ccc(C(=O)NCC(C)c4ccccc4)cc3)oc2C)cc1 (stereo not given),inactive: 82%
14,CCN(c1ccccc1)S(=O)(=O)c1ccc(NC(=O)c2nc(SC(C)C)ncc2Cl)cc1,inactive: 81%
15,CCOC(=O)c1cnc2ccc(OCC)cc2c1Nc1ccc(OCc2ccccc2Cl)cc1,active: 5%
16,Cc1cccc(CNC(=O)CN2C(=O)CSc3c2c(C)nn3-c2ccccc2)c1,inactive: 72%
17,COc1cc(C(CC(=O)Nc2ncccc2C)N2Cc3ccccc3C2=O)cc(OC)c1OC (stereo not given),inactive: 71%
18,CC(C)OC(=O)Cn1c(C2CC2)nc2ccccc2c1=O,inactive: 115%
19,COc1ccc(-c2nc3cc(NC(=O)c4ccc(C)cc4)ccc3o2)cc1Cl,inactive: 97%
20,CC(=O)c1cc(-c2ccc(F)cc2)n(CCC(=O)Nc2nc3ccc(C)cc3s2)c1C,inactive: 68%
21,O=C(OCc1cc(=O)n2nc(C3CC3)sc2n1)c1ccc(NC(=O)c2ccccc2F)cc1,inactive: 82%
22,Cc1ccc(C(=O)N2CCC(C)CC2)cc1NC(=O)c1nsc2ccccc12,inactive: 80%
23,CCOc1ccc(Br)cc1C1NC(=O)c2c(sc3c2CCN(C)C3)N1 (stereo not given),inactive: 77%

row,SMILES,survival
1,COc1ccc(CCNc2ncnc3onc(C)c23)c(OC)c1,inactive: 143%
2,COCCCn1c(=N)c(C(=O)NC2CCCCC2)cc2c(=O)n3cc(C)ccc3nc21,inactive: 78%
3,CCCC(=O)N1CCN(c2ccc(NC(=O)c3ccco3)cc2Cl)CC1,inactive: 92%
4,CC1CCN(S(=O)(=O)c2ccc3nc(N4CCN(c5ccc(F)cc5)CC4)ccc3c2)CC1,inactive: 92%
5,CCc1ccccc1NC(=O)c1ccc(F)c(S(=O)(=O)N2CCN(c3cccc(Cl)c3)CC2)c1,inactive: 63%
6,CC1CCCCN1CCCNC(=O)Cn1ncc2c3ccccc3n(C)c2c1=O (stereo not given),inactive: 85%
7,Cc1ccc(S(=O)(=O)c2cc3cc(C(=O)Nc4ccc(C)cc4C)ccc3oc2=O)cc1,inactive: 91%
8,CCOc1ccc(NC(=O)CSc2oc(-c3ccc(C)cc3)nc2S(=O)(=O)c2ccc(C)cc2)cc1,inactive: 143%
9,COc1ccc(-c2cc(C(F)(F)F)nc(NCc3ccc(F)cc3)n2)cc1,active: -5%
10,COc1cccc(C(=O)N(Cc2ccc(C)o2)C2CCS(=O)(=O)C2)c1 (stereo not given),inactive: 87%
11,O=C(COCc1cc(-c2cccs2)on1)Nc1cc(C(F)(F)F)ccc1Cl,inactive: 83%
12,CC(C)OCCCNC(=O)CCCN1C(=O)CCn2nc(-c3cccn3C)cc21,inactive: 131%
13,Cc1ccc(O)c(-c2n[nH]c3c2C(c2ccc(F)cc2)N(Cc2ccco2)C3=O)c1 (stereo not given),active: 2%
14,Cc1cc(C)c(NC(=O)CSc2nc3c([nH]c4ccccc43)c(=O)n2C)c(C)c1,inactive: 77%
15,O=c1[nH]c2nonc2nc1/C=C(\O)c1ccccc1,inactive: 34%
16,COc1ccc(CCNC(=O)c2ccc(Cn3c(=O)[nH]c4cc(OC)c(OC)cc4c3=O)cc2)cc1OC,inactive: 76%
17,CCc1ccccc1N(CC)C(=O)C1CCN(c2ncnc3c2nc2n3CCCCC2)CC1,inactive: 59%
18,CN=C1SC(C(=O)Nc2ccccc2)CC(=O)N1C (stereo not given),inactive: 114%
19,COc1cc(NC(=O)C2CCN(c3nc4ccccc4nc3C(F)(F)F)CC2)cc(OC)c1,inactive: 78%
20,CCCCNC(=O)CN1CCN(c2ncc(NC(=O)c3ccc(Cl)cc3)cc2C(=O)O)CC1,inactive: 75%
21,CCCOc1cccc(C2c3c(oc4ccc(F)cc4c3=O)C(=O)N2c2nc(C)c(C(C)=O)s2)c1 (stereo not given),inactive: 64%
22,COCCc1nn2c(=O)cc(COC(=O)c3ccc(Br)cc3)nc2s1,inactive: 134%
23,CCC(C)NC(=O)c1sc2nc3n(c(=O)c2c1C)CCC3 (stereo not given),inactive: 85%

row,SMILES,survival
1,CN1CCN(C(CNC(=O)c2c(F)cccc2F)c2ccc3c(c2)OCO3)CC1 (stereo not given),inactive: 93%
2,CC(=O)N1N=C(c2ccccc2)CC1c1ccccc1 (stereo not given),inactive: 104%
3,Cc1cccc(N2CCN(C(=O)c3cc4ccc5cccnc5c4[nH]3)CC2C)c1 (stereo not given),inactive: 101%
4,N#CC(C(=O)c1ccc(F)cc1)c1nc2ccccc2[nH]1 (stereo not given),inactive: 103%
5,CCN(C(=O)Cn1ncc2c(=O)oc3ccccc3c21)c1ccccc1F,inactive: 122%
6,O=c1c2ccccc2n(Cc2cccc(Cl)c2)c(=O)n1Cc1ccccc1,inactive: 96%
7,COCCCNc1nc(NCc2ccc(C)cc2)c2cnn(C)c2n1,inactive: 86%
8,O=C1NC(=O)C(Nc2cccc3ccccc23)S1 (stereo not given),inactive: 104%
9,COc1cccc2c1cc1c(=O)n(CC(=O)N3CCC(C)CC3)nc(C)n12,inactive: 83%
10,COc1ccccc1-c1nc(SCC(=O)c2ccc(Cl)cc2)n[nH]1,inactive: 131%
11,CCC(=O)Nc1sc2c(c1C(=O)Nc1ccc(Br)cc1)CCCCC2,inactive: 144%
12,Cc1cc(C)c(O)c(N)c1,inactive: 113%
13,Cc1ccc2oc(=O)c3cc(C(=O)NCCc4ccc(Cl)cc4)sc3c2c1,inactive: 84%
14,COc1cc(OC)cc(C(=O)NCCc2csc(-c3ccc(C(F)(F)F)cc3)n2)c1,inactive: 55%
15,CC1=CC(C)(C)N(C(=O)CNC2CCCCC2)c2cc(C)ccc21,inactive: 105%
16,Cc1ccc(NC(=O)CCN2C(=O)c3ccccc3Sc3ncccc32)c(Cl)c1,inactive: 89%
17,COc1ccccc1NC(=O)c1sc2nc(C)c(C(=O)Nc3ccc(C)cc3C)c(-c3ccccc3Cl)c2c1N,inactive: 139%
18,CCS(=O)(=O)N1CCc2cc(C(=O)NCc3ccccc3Cl)ccc21,inactive: 84%
19,CCCCc1nn2c(=O)cc(COC(=O)c3ccccc3C)nc2s1,inactive: 72%
20,CN(Cc1ccccc1)S(=O)(=O)c1ccc2c3c(cccc13)C(=O)N2,inactive: 112%
21,Cc1ccc(-n2nc3c(=O)n(C(C)C(=O)NCc4ccccc4C)nc(C)c3c2C)cc1 (stereo not given),inactive: 128%
